Laboratory results: the supplement of paper PMC12217912
Some of the results follow. The full chains were built here from the parent and the listed change. Values near 0.05 are background.

B1: TEV protease; numbered along this chain (parent)
chain: MGESLFKGPRDYNPISSSICHLTNESDGHTTSLYGIGFGPFIITNKHLFRRNNGTLVVQSLHGVFKVKDTTTLQQHLVDGRDMIIIRMPKDFPPFPQKLKFREPQREERICLVTTNFQTKSMSSMVSDTSCTFPSGDGIFWKHWIQTKDGQCGSPLVSTRDGFIVGIHSASNFTNTNNYFTSVPKNFMELLTNQEAQQWVSGWRLNADSVLWGGHKVFMVKPEEPFQPVKEATQL

Variants of: B1
Assay: raw area under fraction-flipped curve 0-4 h after induction (AUC4h, not background-subtracted), DNA-recorder readout of cleavage of the substrate (dimensionless); higher = more cleavage of the substrate by the protease variant
Settings: temperature: 34 °C; time window: 0-4 h after rhamnose induction
Procedure: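 In vivo DNA recorder in E. coli TOP10(DE3) ΔrhaA at 34 °C. Each TEVp single-site mutant (parent TEVp 0) is paired with a single-site variant of the 7-mer TEVs (canonical ENLYFQ|S). The substrate sits between flexible linkers in a Bxb1-sfGFP-TEVs-SsrA fusion, so cleavage stabilises Bxb1 and speeds flipping of a recombination array, read by NGS. The value is the raw area under the fraction-flipped curve over 0-4 h after rhamnose induction (AUC4h), with ≥20 reads per time point. It is not background-subtracted; inactive controls average about 0.047.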
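Further: Bxb1 expression induced with 0.2% (w/v) L-rhamnose at OD600 near 0.5, cultures sampled hourly, flipped fraction per protease–substrate barcode pair counted by paired-end Illumina sequencing.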

Variant | area with substrate EALYFQS | area with substrate ECLYFQS | area with substrate EDLYFQS | area with substrate EELYFQS | area with substrate EGLYFQS | area with substrate EILYFQS | area with substrate EKLYFQS | area with substrate ELLYFQS | area with substrate EMLYFQS | area with substrate EPLYFQS | area with substrate EQLYFQS | area with substrate ERLYFQS | area with substrate ESLYFQS | area with substrate EVLYFQS | area with substrate EYLYFQS | area with substrate EFLYFQS | area with substrate EHLYFQS | area with substrate ETLYFQS | area with substrate EWLYFQS
MGESLFKGPRDYNPISSSICHLTNESDGHTTSLYGIGFGPFIITNKHLFRRNNGTLVVQSLHGVFKVKDTTTLQQHLVDGRDMIIIRMPKDFPPFPQKLKFREPQREERICLVTTNFQTKSMSSMVSDTSCTFPSGDGIFWKHWIQTKDGQCGSPLNSTRDGFIVGIHSASNFTNTNNYFTSVPKNFMELLTNQEAQQWVSGWRLNADSVLWGGHKVFMVKPEEPFQPVKEATQL [V157N] | 0.0518 | 0.0434 | 0.0549 | 0.0539 | 0.0471 | 0.0527 | 0.0484 | 0.0428 | 0.0528 | 0.0493 | 0.0533 | 0.0599 | 0.0581 | 0.0617 | 0.0585 | – | – | – | –
MGESLFKGPRDYNPISSSICHLTNESDGHTTSLYGIGFGPFIITNKHLFRRNNGTLVVQSLHGVFKVKDTTTLQQHLVDGRDMIIIRMPKDFPPFPQKLKFREPQREERICLVTTNFQTKSMSSMVSDTSCTFPSGDGIFWKHWIQTKDGQCGSPLRSTRDGFIVGIHSASNFTNTNNYFTSVPKNFMELLTNQEAQQWVSGWRLNADSVLWGGHKVFMVKPEEPFQPVKEATQL [V157R] | 0.0834 | 0.0553 | 0.0653 | – | 0.0638 | 0.0676 | 0.0662 | 0.0572 | 0.0749 | 0.0705 | – | – | 0.0692 | 0.092 | – | 0.0664 | 0.0676 | 0.0812 | 0.0754
MGESLFKGPRDYNPISSSICHLTNESDGHTTSLYGIGFGPFIITNKHLFRRNNGTLVVQSLHGVFKVKDTTTLQQHLVDGRDMIIIRMPKDFPPFPQKLKFREPQREERICLVTTNFQTKSMSSMVSDTSCTFPSGDGIFWKHWIQTKDGQCGSPLVSTRDHFIVGIHSASNFTNTNNYFTSVPKNFMELLTNQEAQQWVSGWRLNADSVLWGGHKVFMVKPEEPFQPVKEATQL [G162H] | 0.103 | 0.0908 | 0.111 | 0.105 | – | 0.0951 | 0.0891 | 0.0762 | – | 0.106 | 0.109 | 0.0824 | – | 0.104 | 0.0999 | – | 0.0927 | – | –
MGESLFKGPRDYNPISSSICHLTNESDGHTTSLYGIGFGPFIITNKHLFRRNNGTLVVQSLHGVFKVKDTTTLQQHLVDGRDMIIIRMPKDFPPFPQKLKFREPQREERICLVTTNFQTKSMSSMVSDTSCTFPSGDGIFWKHWIQTKDGQCGSPKVSTRDGFIVGIHSASNFTNTNNYFTSVPKNFMELLTNQEAQQWVSGWRLNADSVLWGGHKVFMVKPEEPFQPVKEATQL [L156K] | 0.0477 | 0.0493 | 0.0595 | 0.0499 | 0.0521 | 0.0385 | 0.0579 | – | – | 0.0382 | – | – | 0.0586 | 0.0531 | – | – | 0.0251 | 0.0594 | 0.051
MGESLFKGPRDYNPISSSICHLTNESDGHTTSLYGIGFGPFIITNKHLFRRNNGTLVVQSLHGVFKVKDTTTLQQHLVDGRDMIIIRMPKDFPPFPQKLKFREPQREERICLVTTNFQTKSMSSMVSDTSCTFPSGDGIFWKHWIQTKDGQCGSPLVSERDGFIVGIHSASNFTNTNNYFTSVPKNFMELLTNQEAQQWVSGWRLNADSVLWGGHKVFMVKPEEPFQPVKEATQL [T159E] | 0.0905 | 0.105 | 0.111 | – | – | 0.104 | 0.097 | 0.124 | 0.129 | – | – | 0.0914 | – | 0.0772 | 0.0968 | – | – | 0.124 | 0.101
MGESLFKGPRDYNPISSSICHLTNESDGHTTSLYGIGFGPFIITNKHLFRRNNGTLVVQSLHGVFKVKDTTTLQQHLVDGRDMIIIRMPKDFPPFPQKLKFREPQREERICLVTTNFQTKSMSSMVSDTSCTFPSGDGIFWKHWIQTKDGQCGSPLVSYRDGFIVGIHSASNFTNTNNYFTSVPKNFMELLTNQEAQQWVSGWRLNADSVLWGGHKVFMVKPEEPFQPVKEATQL [T159Y] | 0.111 | 0.115 | 0.131 | 0.0801 | – | 0.0873 | – | 0.0796 | – | 0.109 | 0.123 | 0.122 | 0.0945 | 0.0971 | – | – | 0.102 | 0.146 | 0.0814
MGESLFKGPRDYNPISSSICHLTNESDGHTTSLYGIGFGPFIITNKHLFRRNNGTLVVQSLHGVFKVKDTTTLQQHLVDGRDMIIIRMPKDFPPFPQKLKFREPQREERICLVTTNFQTKSMSSMVSDTSCTFPSGDGIFWKHWIQTKDGQCGSPLVSGRDGFIVGIHSASNFTNTNNYFTSVPKNFMELLTNQEAQQWVSGWRLNADSVLWGGHKVFMVKPEEPFQPVKEATQL [T159G] | 0.128 | 0.126 | – | 0.127 | – | – | 0.109 | 0.0978 | 0.144 | – | 0.0893 | – | – | – | – | – | 0.0968 | 0.104 | 0.127
MGESLFKGPRDYNPISSSICHLTNESDGHTTSLYGIGFGPFIITNKHLFRRNNGTLVVQSLHGVFKVKDTTTLQQHLVDGRDMIIIRMPKDFPPFPQKLKFREPQREERICLVTTNFQTKSMSSMVSDTSCTFPSGDGIFWKHWIQTKDGQCGSPLVSTRDGFIDGIHSASNFTNTNNYFTSVPKNFMELLTNQEAQQWVSGWRLNADSVLWGGHKVFMVKPEEPFQPVKEATQL [V165D] | 0.0499 | 0.0568 | – | 0.0494 | 0.0485 | 0.0417 | 0.0425 | – | 0.0533 | 0.0726 | – | 0.0354 | 0.0533 | 0.0547 | 0.0438 | 0.0375 | – | 0.053 | 0.0545
MGESLFKGPRDYNPISSSICHLTNESDGHTTSLYGIGFGPFIITNKHLFRRNNGTLVVQSLHGVFKVKDTTTLQQHLVDGRDMIIIRMPKDFPPFPQKLKFREPQREERICLVTTNFQTKSMSSMVSDTSCTFPSGDGIFWKHWIQTKDGQCGSPLVHTRDGFIVGIHSASNFTNTNNYFTSVPKNFMELLTNQEAQQWVSGWRLNADSVLWGGHKVFMVKPEEPFQPVKEATQL [S158H] | 0.0508 | 0.0503 | 0.0569 | 0.115 | 0.0447 | 0.0559 | – | 0.0464 | 0.0329 | 0.0464 | – | 0.0615 | 0.0612 | 0.041 | 0.0556 | – | 0.0543 | 0.0405 | 0.0603
